PubChem BioAssay AID1508642 (National Center for Advancing Translational Sciences (NCATS), 2021)
The campaign covered roughly 43,000 compounds. About 200 (0.47%) were called active. Inconclusive results (about 12%) are left out. Calls follow the shape of the dose curve; as a rule, active = well fitted cell-killing curve with a large enough effect; inconclusive = small, poorly fitted or top-dose-only effect, or effect the other way; inactive = flat fitted curve, though single readings scatter. The list shows a part of the results.

Assay: Cell viability qHTS assay in S16 Pmp22-F2sN cells; also: nearly all actives have a fitted effect of over 65% in size
Conditions: S16 Pmp22-F2sN Schwann cells (luciferase reporters placed in the Pmp22 gene) viability, CellTiter-Glo, 24 h; series mostly up to 57.5 µM; activity change, negative = cytotoxicity: at the top concentration
Procedure, shortened: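 Rat S16 Schwann reporter line, 24 h treatment with library compounds delivered at 23 nL per well. Cell viability by CellTiter-Glo luminescence.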
% is scaled to controls: 0 for no effect and ±100 for the full control effect.

| Structure (SMILES) | activity change, negative = cytotoxicity |
| --- | --- |
| Cc1ccccc1CNC(=O)C(C)n1nc(C)n2c(cc3occc32)c1=O (stereo unspecified) | inactive: 12.2% |
| Cc1ccc(-c2nc3c(c(SCC(=O)N4CCCCC4)n2)Cc2cc(C)ccc2O3)cc1 | inactive: 0.417% |
| CCn1c(CNC(=O)c2ccc(OC)cc2)nnc1SCC(=O)Nc1ccc(OC)cc1 | inactive: 8.77% |
| Cc1ccc(-n2c(=O)c3c(c4cc(C)ccc4n3C)n(CC(=O)NCc3ccccc3Cl)c2=O)cc1 | inactive: 23.1% |
| O=C(NCc1ccccc1Br)c1ccc2nc(N3CCCCC3)sc2c1 | inactive: 9.94% |
| CCCCN(CCCC)C(=O)CN(C)S(=O)(=O)c1ccc2c(c1)c(=O)n(C)c(=O)n2C | inactive: -23.7% |
| CC(Nc1ccc(-c2nc(-c3ccncc3)no2)cc1[N+](=O)[O-])c1ccccc1 (stereo unspecified) | inactive: 7.02% |
| Cc1cc(C)cc(N2CC(c3nc(-c4ccccc4C)no3)CC2=O)c1 (stereo unspecified) | inactive: -9.86% |
| CC(=O)Nc1c(C)nn(-c2ccccc2)c1N1CCC(C(=O)NCc2ccc(Cl)cc2)CC1 | inactive: 6.41% |
| Cc1cccc(NC(=O)Cn2c(=O)n(-c3ccccc3Cl)c(=O)c3c(C)c(C(=O)N(C)C)sc32)c1 | inactive: 2.95% |
| CCOC(=O)c1ccc(NC(=O)CN(c2ccc(C)cc2)S(=O)(=O)c2c(C)noc2C)cc1 | inactive: -6.19% |
| Cc1nc2c(C(=O)NCCc3ccc(Cl)cc3)cnn2c(C)c1Cc1c(F)cccc1Cl | inactive: 16.7% |
| CCOC(=O)c1ccc(CN(Cc2ccccc2)S(=O)(=O)c2ccc(C)cc2)cc1 | inactive: 5.26% |
| COc1ccc(CCC(=O)NC2CC(=O)N(c3ccc(C)cc3)C2)cc1 (stereo unspecified) | inactive: 2.14% |
| CCCCNC(=O)C(CC)Sc1nnc(-c2cccc(F)c2)c(-c2cccc(F)c2)n1 (stereo unspecified) | inactive: 0.939% |
| Cc1cccc(C(=O)Nc2ccc(-c3nc4ccccc4s3)cc2Cl)c1 | inactive: 8.14% |
| CCCCOC(=O)c1ccc(Nc2ncnc3[nH]ncc23)cc1 | inactive: 1.67% |
| Cc1ccccc1-c1ncnn1-c1sc2c(c1C#N)CCCCC2 | inactive: -12.9% |
| COc1ccc(-c2cc(C(=O)OCC(=O)c3ccc(C)cc3)c3cccc(Cl)c3n2)cc1 | inactive: -1.65% |
| CC(C)Cn1c(=O)c2ccccc2n2c(CCC(=O)NCc3ccccc3Cl)nnc12 | inactive: 0.954% |
| CCOc1ccccc1NC(=O)C(Cc1ccccc1)NS(=O)(=O)c1ccc2c(c1)oc(=O)n2C (stereo unspecified) | inactive: 7.05% |
| O=C(CN1C=NS(=O)(=O)c2ccccc21)Nc1ccc(F)cc1 | inactive: 8.2% |
| O=C(NCc1cccs1)c1ccc2c(c1)N(Cc1ccccc1Cl)C(=O)c1ccccc1S2 | inactive: 17.2% |
| COc1ccc(-c2cc3nc(C)c(CCC(=O)N4CCN(c5cccc(Cl)c5)CC4)c(C)n3n2)c(OC)c1 | inactive: 2.42% |
| CC(=O)NCCNC(=O)CCCc1nnc2n(C)c(=O)c3sccc3n12 | inactive: -2.04% |
| COc1ccc(CNC(=O)c2cc3cc(C)ccc3n2C)cc1 | inactive: -3.14% |
